In patent US20090155271A1 (ZymoGenetics, published 2009):
Values joined by “and” are separate entries in the source; they are usually repeats but may differ in a detail not shown here. Equal values may be shown once.

T1: human IL-17F (human, UniProt Q96PD4 31-163)
T1 sequence: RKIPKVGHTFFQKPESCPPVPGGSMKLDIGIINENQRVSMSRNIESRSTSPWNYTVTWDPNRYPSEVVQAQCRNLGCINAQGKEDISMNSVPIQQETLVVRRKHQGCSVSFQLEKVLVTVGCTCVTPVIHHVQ

T2: human IL-17A (human, UniProt Q16552 24-155)
T2 construct: also called hIL-17A; huIL-17A
T2 sequence: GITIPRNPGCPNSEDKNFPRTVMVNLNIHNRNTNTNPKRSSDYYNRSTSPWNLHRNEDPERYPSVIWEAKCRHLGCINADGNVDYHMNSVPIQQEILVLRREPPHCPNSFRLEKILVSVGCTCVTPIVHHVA

B1: soluble human IL-17RCx1 Fc fusion protein IL-17RC-Tbx-C(Fc9) (Fc fusion)
chain: LERLVGPQDATHCSPGLSCRLWDSDILCLPGDIVPAPGPVLAPTHLQTELVLRCQKETDCDLCLRVAVHLAVHGHWEEPEDEEKFGGAADSGVEEPRNASLQAQVVLSFQAYPTARCVLLEVQVPAALVQFGQSVGSVVYDCFEAALGSEVRIWSYTQPRYEKELNHTQQLPALPWLNVSADGDNVHLVLNVSEEQHFGLSLYWNQVQGPPKPRWHKNLTGPQIITLNHTDLVPCLCIQVWPLEPDSVRTNICPFREDPRAHQNLWQAARLRLLTLQSWLLDAPCSLPAEAALCWRAPGGDPCQPLVPPLSWENVTVDKVLEFPLLKGHPNLCVQVNSSEKLQLQECLWADSLGPLKDDVLLLETRGPQDNRSLCALEPSGCTSLPSKASTRAARLGEYLLQDLQSGQCLQLWDDDLGALWACPMDKYIHKGGSGGGTGSLVPRGS[human IgG1 Fc left out here]
B2: Variant 1407 (exons 1-10 of human IL-17RA and 8-16 of human IL-17RCx1, fused to Fc5) (Fc fusion)
chain: [about 300 residues left out here]ALPWLNVSADGDNVHLVLNVSEEQHFGLSLYWNQVQGPPKPRWHKNLTGPQIITLNHTDLVPCLCIQVWPLEPDSVRTNICPFREDPRAHQNLWQAARLRLLTLQSWLLDAPCSLPAEAALCWRAPGGDPCQPLVPPLSWENVTVDKVLEFPLLKGHPNLCVQVNSSEKLQLQECLWADSLGPLKDDVLLLETRGPQDNRSLCALEPSGCTSLPSKASTRAARLGEYLLQDLQSGQCLQLWDDDLGALWACPMDKYIHKEPKSSDKTHTCPPCPAPEAEGAPSVFLFPPKPKDTLMISRTPEVTCVVVDVSHEDPEVKFNWYVDGVEVHNAKTKPREEQYNSTYRVVSVLTVLHQDWLNGKEYKCKVSNKALPSSIEKTISKAKGQPREPQVYTLPPSRDELTKNQVSLTCLVKGFYPSDIAVEWESNGQPENNYKTTPPVLDSDGSFFLYSKLTVDKSRWQQGNVFSCSVMHEALHNHYTQKSLSLSPGK
notes: also called IL17RA/RC 1407

Key:
[1] = molecular target: T1, human IL-17F; test: cell-based or functional assay
[2] = molecular target: T2, human IL-17A; test: FACS competition, biotinylated IL17A on BHK IL17RCx4 cells
Method: (§1) The biotinylation of the ligand allows for FACS detection using a secondary Streptavidin conjugated fluorophore. A reduction in cell bound ligand over a titration of the soluble receptor is recorded as a reduction in the mean fluorescence of the cells. Biotinylated ligands are individually pre-mixed at 1 ug/ml with titrating amounts of soluble receptor in staining media (HBSS+1% BSA+0.1% NaAzide+10 mM HEPES) in 100 ul volumes and incubated at RT for 15 minutes. A BHK cell line stably transfected with full length IL17RCx4 is prepared for ligand staining by resuspension with Versene (Invitrogen cat. 15040-066), equilibrating to 2×10e5 cells/100 ul, pelleting, and resuspension in the ligand/soluble receptor pre-mix. […] The BD LSRII Flow Cytometer or similar instrument is used for data collection and analysis. FIG. 5 depicts a standard graph. The graph was generated using the Prizm software program. The Y values represent the MFI normalized to maximum and minimum (100% and 0%) based on ligand only and no ligand/no soluble receptor control wells, and thus the percent binding of the ligand to the cells. The software calculates the IC50 for each curve.

[3] = molecular target: T1, human IL-17F; test: FACS competition, biotinylated IL17F on BHK IL17RCx4 cells
Method: as §1

| Binder | IC50, luciferase activation of hIL-17RCX4/NIH3T3/KZ142.8 cells by 1 ng/ml IL-17F [1] | IC50 [2] | IC50 [3] |
| --- | --- | --- | --- |
| B1 | 6 µg/mL | – | – |
| B2 | – | 7 µg/mL and 9 µg/mL | 33 µg/mL and 42 µg/mL |
